Results published in paper PMC4336329 (PLoS ONE, 2015).
Hit rate of the full screen: of about 310,000 compounds, about 14,000 (4.5%) showed an effect of 50% or more. The effect is printed as a negative number. The list shows a part of the results.

molecular target: human ether-à-go-go-related gene (hERG) potassium channel (human, UniProt Q12809); test: primary screen, population patch clamp on CHO cells stably expressing hERG
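Note: peak tail current of the secondary pulse compared with the same well before compound.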

human ether-à-go-go-related gene (hERG) potassium channel, sequence (Q12809 whole entry, looked up): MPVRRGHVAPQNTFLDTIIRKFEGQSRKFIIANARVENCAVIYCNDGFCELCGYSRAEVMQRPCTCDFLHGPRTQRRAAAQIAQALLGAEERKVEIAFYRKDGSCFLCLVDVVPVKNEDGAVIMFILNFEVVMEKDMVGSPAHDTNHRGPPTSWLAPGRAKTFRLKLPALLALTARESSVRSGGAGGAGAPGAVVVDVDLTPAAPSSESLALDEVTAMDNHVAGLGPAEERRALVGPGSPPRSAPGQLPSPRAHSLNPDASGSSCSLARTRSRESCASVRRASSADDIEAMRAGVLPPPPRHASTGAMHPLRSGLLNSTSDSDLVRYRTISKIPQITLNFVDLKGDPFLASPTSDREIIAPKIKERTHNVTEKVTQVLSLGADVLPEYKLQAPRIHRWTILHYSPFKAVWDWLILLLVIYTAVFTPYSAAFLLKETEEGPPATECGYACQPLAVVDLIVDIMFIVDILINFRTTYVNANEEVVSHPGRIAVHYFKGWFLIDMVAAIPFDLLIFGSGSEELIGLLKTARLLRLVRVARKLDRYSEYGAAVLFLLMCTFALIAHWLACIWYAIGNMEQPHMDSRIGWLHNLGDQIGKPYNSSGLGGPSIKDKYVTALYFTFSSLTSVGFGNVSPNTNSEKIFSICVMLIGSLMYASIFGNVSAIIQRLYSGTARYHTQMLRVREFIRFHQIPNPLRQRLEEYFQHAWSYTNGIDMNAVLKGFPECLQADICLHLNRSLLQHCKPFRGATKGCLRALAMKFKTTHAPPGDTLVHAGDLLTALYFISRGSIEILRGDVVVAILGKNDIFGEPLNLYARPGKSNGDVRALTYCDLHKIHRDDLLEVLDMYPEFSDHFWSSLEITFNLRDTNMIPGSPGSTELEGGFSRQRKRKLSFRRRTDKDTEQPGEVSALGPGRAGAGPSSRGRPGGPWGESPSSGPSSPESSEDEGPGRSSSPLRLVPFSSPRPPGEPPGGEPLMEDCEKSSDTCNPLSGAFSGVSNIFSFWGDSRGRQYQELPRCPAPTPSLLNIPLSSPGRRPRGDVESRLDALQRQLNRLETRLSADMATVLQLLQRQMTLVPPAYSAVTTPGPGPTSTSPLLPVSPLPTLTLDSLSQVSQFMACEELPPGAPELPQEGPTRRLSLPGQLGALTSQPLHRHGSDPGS

In order of rising “hERG current change (%, negative = inhibition) at 10uM” value:
1. OC1(c2ccc(Cl)cc2)CCN(Cc2cn[nH]c2-c2ccc(F)cc2)CC1  -68.7%
2. CCN(CC)CCN(C(=O)c1ccccc1OC)c1nc2ccc(F)cc2s1.Cl  -68.3%
3. CCOC(=O)c1cnc2c(C)cccc2c1NCc1ccco1  -67.9%
4. CN1CCN(/N=C/c2nc(-c3ccc(Cl)cc3)n3ccccc23)CC1  -62.1%
5. Cn1c(-c2ccc(F)cc2)cnc1NCc1cc2c(cc1[N+](=O)[O-])OCO2.O=C(O)C(=O)O  -57.8%
6. CN1CCc2nc(NC(=O)COc3ccc4ccccc4c3)sc2C1  -56.2%
7. CN1CCN(C(=S)NC(=O)c2ccc(-c3ccccc3)cc2)CC1  -48.4%
8. COc1ccccc1CCNC(=O)C(=O)NCC1OCCN1S(=O)(=O)c1ccc([N+](=O)[O-])cc1 (stereo not drawn)  -46.7%
9. CCN(CC(=O)N1CCN(Cc2ccccc2)CC1)S(=O)(=O)c1ccc(F)cc1  -46%
10. COCCN(C(=O)CCc1ccccc1OC)c1nnc(-c2cccnc2)s1  -37.1%
11. Cc1cccc(N2CCN(C(=O)c3ccccc3SCC(=O)N3CCCC3)CC2)c1C  -34.7%
12. CCSc1sccc1C1C(C#N)=C(N)N(c2cccnc2)C2=C1C(=O)CCC2 (stereo not drawn)  -31.5%
13. Cc1c(OC(C)C(=O)NCc2ccncc2)ccc2c3c(c(=O)oc12)CCCC3 (stereo not drawn)  -27.7%
14. CCn1c(SCC(=O)Nc2nc(C)c(C)s2)nnc1-c1cccnc1  -26.2%
15. Cc1ccc(/C=N/N2CCN(Cc3ccc(Cl)cc3)CC2)o1  -23.4%
16. O=C(CN(Cc1ccccc1)C(=O)c1csnn1)NCc1ccc2c(c1)OCO2  -23.4%
17. CCc1nc(SCC(=O)NCc2ccco2)c2c3c(sc2n1)CCCC3  -20.1%
18. CN1C(=O)C(C)(C)c2cc(S(=O)(=O)N3CCC(C(=O)NCc4ccccc4Cl)CC3)ccc21  -18.1%
19. CC(=O)c1cccc(NC(=O)CSc2nnc(-c3ccc(S(=O)(=O)N4CCCC4)cc3)o2)c1  -18.1%
20. O=C(c1ccc(C(F)(F)F)cc1)C1CCCN(C(=O)Cn2cncn2)C1 (stereo not drawn)  -14.8%
21. O=C(Cc1ccccc1[N+](=O)[O-])NNC(=O)c1ccncc1  -14.4%
22. CCc1cccc(NC(=O)Cn2c3[n+](c4ccc(C(F)(F)F)cc42)CCCCC3)c1.[Cl-]  -14.3%
23. CCCCn1nnnc1SCC(=O)c1ccc(C)c(C)c1  -13.3%
24. COc1cccc(N2CCN(Cc3ncc(-c4ccccc4)o3)CC2)c1  -13%
25. Cc1ccccc1OCCC(=O)N(CC(=O)Nc1ccccc1C(F)(F)F)Cc1ccco1  -11%
26. C=CCC(O)(CCN1CCCCC1)c1ccccc1.Cl (stereo not drawn)  -10.8%
27. C[C@@H]1CCC(=O)N(CC[C@H](N=[N+]=[N-])c2ccccc2)CC1  -10.7%
28. O=C(c1cccc(C(F)(F)F)c1)C1CCCN(C(=O)CCn2cnnn2)C1 (stereo not drawn)  -8.45%
29. CN1CCc2nc(N)c(C#N)c(-c3ccccc3)c2C1  -7.5%
30. Cc1ccc(-c2nnc(CSc3nnc(COc4ccccc4)n3-c3ccc(C)cc3)o2)cc1  -7.47%
31. COc1ccccc1CNC(=O)CCC(=O)N1Cc2cccc(OC)c2Oc2ncccc21  -6.77%
32. Cc1ccc(NC(=O)C(CC(C)C)NC(=O)C2CCC(C)CC2)nc1 (stereo not drawn)  -6.68%
33. CCC1(C(=O)c2ccccc2)C2c3ccccc3OC(=O)C21C(C)=O (stereo not drawn)  -4.94%
34. C=C1CCN(C(Cc2ccccc2)C(=O)OC)S(=O)(=O)c2ccc(F)cc21 (stereo not drawn)  -3.89%
35. Clc1ccc(-c2nnc3n2CCCC3)cc1Cl  -3.7%
36. COC(=O)c1cccc(C(=O)Oc2cccc(Br)c2)n1  -3.42%
37. CCOC(=O)C1CCN(C(=O)COC(=O)C2CCN(S(=O)(=O)c3ccc(C)c(C)c3)CC2)CC1  -3.24%
38. COc1cccc(C(=O)N2CCC(O)(c3cccnc3)CC2)c1  -2.54%
39. O=C(O)CCC(=O)NCc1ccc2[nH]c3c(c2c1)CCCC3  -2.3%
40. CC(=O)C(Sc1ccc2nnc(-c3ccncc3)n2n1)C(C)=O  -2.26%
41. OCCN(CC(O)Cn1ccc2ccccc21)CC(O)Cn1ccc2ccccc21 (stereo not drawn)  -1.89%
42. CCOc1cc(C(=O)Nc2ccc(S(=O)(=O)Nc3cc(C)on3)cc2)cc(OCC)c1OCC  -0.904%
43. Cc1cc(C)c(S(=O)(=O)c2ccccc2)c(OC(=O)c2c(F)cccc2Cl)n1  0.037%
44. CC1=C(C(=O)Nc2cccnc2)C(c2ccncc2)n2nnnc2N1 (stereo not drawn)  0.138%
45. COc1ccc2c(c1OC)C(=O)OC2Nc1ncccc1C (stereo not drawn)  0.242%
46. CC(C)c1nnc(SCc2ccc(CSc3nnc(C(C)C)n3N)cc2)n1N  0.377%
47. Cc1[nH]ncc1-c1ccccc1Cl  1.29%
48. NCCNc1ccc([N+](=O)[O-])c2cccnc12  1.29%
49. c1cc2c(cnc3cscc32)s1  1.45%
50. CC(=O)Nc1ccc(S(=O)(=O)NCc2nnnn2-c2ccc(Cl)cc2)cc1  2.31%
51. COc1ccc(C2CC(=O)c3c(C)nc(N4CCN(c5ccccc5)CC4)nc3C2)cc1 (stereo not drawn)  3.44%
52. CCOc1ccc(N(CC(=O)NCCc2ccccc2)C(=O)CCC(=O)Nc2cc(C)ccn2)cc1  4.41%
53. O=C(O)C[C@@H](CNC(=O)COc1ccc2ccc(=O)oc2c1)c1ccc(Cl)cc1  4.53%
54. CC(C)N1CCC(N2CCN(C3CCCC3)CC2CCO)CC1 (stereo not drawn)  4.82%
55. COc1cccc(OC)c1C(=O)OCC(=O)/C(C#N)=C(\C)N  4.87%
56. COC(=O)[C@@H](N)Cc1ccc(O)c(O)c1.Cl  5.31%
57. CCn1c(=S)sc2c(=O)n(CC(=O)NC(C)CCc3ccccc3)c(C)nc21 (stereo not drawn)  5.52%
58. Cc1cc(=O)n2nc(N3CCC(C(=O)NC(C)c4ccccc4)CC3)sc2n1 (stereo not drawn)  5.85%
59. CCNC(=O)C1CCN(S(=O)(=O)c2ccc(F)cc2)CC1  6.31%
60. COc1cccc2cc(C(=O)Nc3cccnc3N3CCOCC3)c(=O)oc12  6.41%
61. CC(C)On1c(SCC(=O)N(C)C)nc2ccccc2c1=O  6.51%
62. CN(c1ccccc1)S(=O)(=O)c1ccc(NC(=O)c2ccco2)cc1  6.72%
63. CCOC(=O)Nc1cc2c(C)cc(=O)oc2cc1C  6.95%
64. Cc1cc(=O)oc(C)c1C(=O)NCCN(C)Cc1ccccc1  8.33%
65. COc1cccc(/C=C2\SC(=S)N(CCCC(=O)N(CCO)c3ccccc3)C2=O)c1  8.96%
66. CC1(C)CNC(=O)c2sc(NC(=O)c3ccccc3Cl)nc2C1  8.99%
67. CCOc1c2ccc(C(=O)NCc3ccco3)cc2nn1CC  9.58%
68. O=C(Nc1ccc(F)cc1F)NC1CCN(S(=O)(=O)c2ccc(F)cc2)CC1  9.78%
69. O=S(=O)(c1ccccc1)N1CCN(c2nc(-c3cccs3)nc3ccccc23)CC1  9.84%
70. O=C(Cc1c[nH]c2ccccc12)OCCOC(=O)Cc1c[nH]c2ccccc12  10.1%
71. CC(=O)Nc1ccc2c(c1)nc(CCN1CCOCC1)n2C  10.4%
72. COc1ccc(S(=O)(=O)NCC(=O)NCc2cc(=O)n(C)c(=O)n2C)cc1  11.5%
73. CC(C)CCOCC(O)CCC(=O)NNC(=S)Nc1ccccc1 (stereo not drawn)  11.6%
74. COc1cccc(CC2(CO)CCN(S(=O)(=O)N(C)C)CC2)c1  11.9%
75. Cc1ccc(NC(=O)c2cccs2)cc1NC(=O)c1ccccc1Cl  12.6%
76. O=C(NCc1ccccc1Cl)C1CCCN1C(=O)Nc1ccccc1 (stereo not drawn)  12.7%
77. Cc1ccc(/C=N/Nc2ccccn2)s1  14.2%
78. Cc1c(C)c2ccc(O[C@@H]3O[C@H](CO)[C@H](O)[C@H](O)[C@H]3O)c(C)c2oc1=O  14.3%
79. O=C(O)Cc1sc(Nc2ccccc2)nc1-c1ccc(Cl)cc1  14.6%
80. c1ccc(CSc2ncnc3c2cnn3Cc2ccccc2)cc1  14.9%
81. O=C(COc1ccc(S(=O)(=O)N2CCOCC2)cc1Cl)N1CCOCC1  15.1%
82. CCOc1ccc(/C=N/NC(=O)C2CC2)cc1OC  18.3%
83. COc1cc(C(=O)Nc2nnc(C(F)(F)F)s2)c([N+](=O)[O-])cc1OC  18.4%
84. COC(=O)c1ccccc1Oc1cnc2ccccc2n1  18.9%
85. Cc1nn(CC(=O)NCC(C)c2ccccc2)c(=O)c2cc(-c3ccccc3)nn12 (stereo not drawn)  22.3%
86. Cc1cc(C)cc(NC(=O)CC2NCCNC2=O)c1 (stereo not drawn)  26.3%
87. C/C(=C\C(=O)c1ccc(Cl)cc1Cl)N(C)C  34%
